The source gives no read counts; variants with many changes may rest on few reads.
B1: LINE1-mini (parent)
chain: GGCAGAGCUCAACACAGCGUGGCAAAGUGGCUGUGGCUAGACUGCC

Variants of: B1
Test: self-cleavage, relative activity (ratio to wild type); higher = more cleavage; in vitro, sequencing; the parent is a self-cleaving ribozyme

Variant | self-cleavage
GGCAGAGCUCAACACAGCGUGGCAAAGUAGCUGUCGCUCGACUGCC [G29A G35C A39C] | 0.81
GGCAGAGCUCAACACAGCGUGGCAAAGUAGUUGUGCCUAGACUGCC [G29A C31U G36C] | 0.03
GGCAGAGCUCAACACAGCGUGGCAAAUUGGCUGGGGAUAGACUGCC [G27U U34G C37A] | 0.04
GGCAGAGCUCAACACAGCGUGGCAAAGUAUCUAUCGCUAGACUGAA [G29A G30U G33A G35C C45A C46A] | 0.03
GGCAGAGCUCAACACAGCGUGGCAAACUGGCUGUGGCUAGACGGCU [G27C U43G C46U] | 0.01
GGCAGAGCUCAACACAGCGUGGCAAAGUAGCUGUGGCUAGAGGGCC [G29A C42G U43G] | 0.99
GGCAGAGCUCAACACAGCGUGGCAAAGAGUCUGUGGGUAGACUGCC [U28A G30U C37G] | 0.19
GGCAGAGCUCAACACAGCGUGGCAAAGAGGCUGUUGCUAGAUUGCC [U28A G35U C42U] | 0.09
GGCAGAGCUCAACACAGCGUGGCAAAGAGGCUGAGGCUAGAUUGCC [U28A U34A C42U] | 0.23
GGCAGAGCUCAACACAGCGUGGCAAAGUAGGUGUGGCGAGACUGCC [G29A C31G U38G] | 0.02
GGCAGAGCUCAACACAGCGUGGCAAAUUGGCUGUGGCUAGAGAGCU [G27U C42G U43A C46U] | 0.02
GGCAGAGCUCAACACAGCGUGGCAAACUGGCUGUGGCAGGACUGCC [G27C U38A A39G] | 0.08
GGCAGAGCUCAACACAGCGUGGCAAAUUGUCUGUGGCUAGACUGAC [G27U G30U C45A] | 1.31
GGCAGAGCUCAACACAGCGUGGCAAAUUGGCUGUGGCUAGCAUGCC [G27U A41C C42A] | 0.03
GGCAGAGCUCAACACAGCGUGGCAAAGUAGCUGAGGUUAGACUGCC [G29A U34A C37U] | 0.02
GGCAGAGCUCAACACAGCGUGGCAAAGUAGCUGUAGCUGGACUGUC [G29A G35A A39G C45U] | 0.05
GGCAGAGCUCAACACAGCGUGGCAAAGUUGCUGUCGCUAUACUGCG [G29U G35C G40U C46G] | 0.21
GGCAGAGCUCAACACAGCGUGGCAAAUUGGAUGUGGCUAGAGUGCC [G27U C31A C42G] | 0.08
GGCAGAGCUCAACACAGCGUGGCAAAGUAGCUGUGGCUAUACGGCC [G29A G40U U43G] | 0.02

Variant | self-cleavage
GGCAGAGCUCAACACAGCGUGGCAAAGUUACAGUGGCUAGACUGCC [G29U G30A U32A] | 0.26
GGCAGAGCUCAACACAGCGUGGCAAAGUCCCUGUGGCUAGACUCCC [G29C G30C G44C] | 0.09
GGCAGAGCUCAACACAGCGUGGCAAAGAUGCUGUGGCUAGGCUGCC [U28A G29U A41G] | 0.99
GGCAGAGCUCAACACAGCGUGGCAAAGAGGGUGUGGCUAGUCUGCC [U28A C31G A41U] | 0.14
GGCAGAGCUCAACACAGCGUGGCAAAGCGGUCGUGGCUAGACUGAC [U28C C31U U32C C45A] | 0.06
GGCAGAGCUCAACACAGCGUGGCAAAGAGUCUGAGGCUAGACAGCC [U28A G30U U34A U43A] | 0.04
GGCAGAGCUCAACACAGCGUGGCAAAGGGCCUGUGGCUAGUCUGCC [U28G G30C A41U] | 0.6
GGCAGAGCUCAACACAGCGUGGCAAAGUAGCUGUUGCGAGACUGCC [G29A G35U U38G] | 0.02
GGCAGAGCUCAACACAGCGUGGCAAAGUUGGUGUGGCUAAAAUGCC [G29U C31G G40A C42A] | 0.01
GGCAGAGCUCAACACAGCGUGGCAAAUGGGCUGACGCUAGACUGCC [G27U U28G U34A G35C] | 0.06
GGCAGAGCUCAACACAGCGUGGCAAAGGGGAUAUGGCUAGAUUGCC [U28G C31A G33A C42U] | 0.02
GGCAGAGCUCAACACAGCGUGGCAAAUUGGCUGUGGAUAGACUGCG [G27U C37A C46G] | 0
GGCAGAGCUCAACACAGCGUGGCAAAGUUGCUUUGUCUAGACUGCC [G29U G33U G36U] | 0.06
GGCAGAGCUCAACACAGCGUGGCAAAGUAGCCGUGGCUAGACUGGC [G29A U32C C45G] | 0.07
GGCAGAGCUCAACACAGCGUGGCAAAGCGGCUGUGGCCAGAGUGAC [U28C U38C C42G C45A] | 0.14
GGCAGAGCUCAACACAGCGUGGCAAAGAGUCUGUAUCUGGACUGCC [U28A G30U G35A G36U A39G] | 0.04
GGCAGAGCUCAACACAGCGUGGCAAAGUUGCUGUAGCUAGAAUGCC [G29U G35A C42A] | 0
GGCAGAGCUCAACACAGCGUGGCAAAGCGGCUGUCGUCAGACUGCC [U28C G35C C37U U38C] | 0.06
GGCAGAGCUCAACACAGCGUGGCAAAGAGGCUGUAGCUAGAAUGCC [U28A G35A C42A] | 0.06

Variant | self-cleavage
GGCAGAGCUCAACACAGCGUGGCAAAUUGGCUUUGCUUAUACUGCC [G27U G33U G36C C37U G40U] | 0.12
GGCAGAGCUCAACACAGCGUGGCAAAGCGCCUGUGGCUAGACUUCC [U28C G30C G44U] | 0.53
GGCAGAGCUCAACACAGCGUGGCAAAUUGGCUGUGGCCAGACUUCC [G27U U38C G44U] | 0.8
GGCAGAGCUCAACACAGCGUGGCAAAGGGGUUGUGGCGAGGCUGCC [U28G C31U U38G A41G] | 0.01
GGCAGAGCUCAACACAGCGUGGCAAAGCGGCUUUGGCUAGACUGCA [U28C G33U C46A] | 0.13
GGCAGAGCUCAACACAGCGUGGCAAAGCGGCUGUGGCUAGCUUGCC [U28C A41C C42U] | 0.01
GGCAGAGCUCAACACAGCGUGGCAAACUGGCGGUGGCUAGACUUCC [G27C U32G G44U] | 0.03
GGCAGAGCUCAACACAGCGUGGCAAAUUGGCUGGGGCUAGACUCCC [G27U U34G G44C] | 0.05
GGCAGAGCUCAACACAGCGUGGCAAAGCGACAGUGGCUACACUGCC [U28C G30A U32A G40C] | 0.16
GGCAGAGCUCAACACAGCGUGGCAAAGUUGGGGUGGCUAGGAUGCC [G29U C31G U32G A41G C42A] | 0.03
GGCAGAGCUCAACACAGCGUGGCAAAGUUGCUGUGCCUAGACUGCA [G29U G36C C46A] | 0.13
GGCAGAGCUCAACACAGCGUGGCAAAGUAGCUCUGGCUAGACUGAC [G29A G33C C45A] | 0.04
GGCAGAGCUCAACACAGCGUGGCAAAGUUUCUGUGGCUAGACUGGC [G29U G30U C45G] | 0.13
GGCAGAGCUCAACACAGCGUGGCAAAGAGACUGGGGCUAGAUUGCC [U28A G30A U34G C42U] | 0.03
GGCAGAGCUCAACACAGCGUGGCAAAGAGGCACUGGUUAGACUGCC [U28A U32A G33C C37U] | 0.09
GGCAGAGCUCAACACAGCGUGGCAAAGUAGCUGGGGCUAGAGUGCC [G29A U34G C42G] | 0.09
GGCAGAGCUCAACACAGCGUGGCAAAUAGGCUGUGUCUAGAUUGCC [G27U U28A G36U C42U] | 0.02
GGCAGAGCUCAACACAGCGUGGCAAAGCGGCUGUCGCUAGACUCCC [U28C G35C G44C] | 0.11
